# Inconclusive results, whose numbers are uncertain, are shown with a selection of clear calls. Potencies of inconclusive entries are doubtful fits and often do not repeat. The source made the active and inactive calls. Unless noted, the call rests on the fitted dose curve; in most records, active means well fitted curve in the direction sought with a large enough effect in the repeat runs; inconclusive means weak or mixed curves; inactive means no such curve, though single readings can be large; an effect the other way counts as inactive or inconclusive.
# Experiments:
# [1] = A CellTox Green Cytotoxicity Assay to monitor cytotoxicity in HepG2 cells - 32 hour (AID 1224883); further: nearly all actives have a fitted effect of over 50% in size
# In short: (§1)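 Real-time, homogeneous cytotoxicity readout: dead-cell DNA staining by CellTox Green in HepG2 monolayers, fluorescence measured at timed intervals up to 40 h of continuous compound exposure.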
# [2] = qHTS RealTime-Glo MT Cell Viability Assay in HEK293 cells - 8 hour (AID 1224887); further: nearly all actives have a fitted effect of over 50% in size
# In short: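 Nonlytic bioluminescent viability monitoring. HEK293 at 600 cells/well with reagent; 5 h settle; compound transfer by pintool; plates held at 37 C and read at set time points.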
# [3] = qHTS assay to identify small molecule antagonists of the sonic hedgehog signaling (Shh) pathway (AID 1259369; calls by dose curve; further: nearly all actives have a fitted effect of over 45% in size)
# In short: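 Inhibition of Shh signalling is measured as reduced Gli1-response-element firefly luciferase output in an NIH/3T3-derived stable reporter clone stimulated with conditioned medium for 24hr.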
# [4] = qHTS RealTime-Glo MT Cell Viability Assay in HepG2 cells - 0 hour (AID 1224889); further: nearly all actives have a fitted effect of over 50% in size
# In short: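 Luminescence read-out: viable HepG2 cells reduce a prosubstrate to a NanoLuc substrate, giving a signal proportional to live cell number. Reads taken at 0, 8, 16, 24, 32 and 40 h of compound exposure at 37 C.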
# [5] = A CellTox Green Cytotoxicity Assay to monitor cytotoxicity in HepG2 cells - 8 hour (AID 1224890); further: nearly all actives have a fitted effect of over 45% in size
# In short: as §1
# [6] = qHTS assay to identify small molecule antagonists of the estrogen receptor alpha (ER-alpha) signaling pathway using the BG1 cell line in the presence of 0.1 nM 17-beta-estradiol - cell viability counter screen (AID 1259241); further: nearly all actives have a fitted effect of over 40% in size
# In short: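 Live-cell protease activity (CellTiter-Fluor fluorescence, 30 min) was read in the same wells after VM7Luc4E2 cells had been exposed to compounds with 0.1 nM 17beta-estradiol for 22 hr at 37C.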
# [7] = qHTS assay to identify small molecule antagonists of the androgen receptor (AR) signaling pathway using the MDA cell line in the presence of 0.5 nM R1881 - cell viability counter screen (AID 1259242); further: nearly all actives have a fitted effect of over 45% in size
# In short: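 Cytotoxicity toward MDA-kb2 cells is measured by CellTiter-Fluor live-cell protease fluorescence after 16 hr compound exposure at 37C in the presence of 0.5 nM R1881 stimulator.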
# [8] = target: Estrogen receptor (Homo sapiens) (UniProt P03372); assay: qHTS assay to identify small molecule antagonists of the estrogen receptor alpha (ER-alpha) signaling pathway using the BG1 cell line in the presence of 0.1 nM 17-beta-estradiol (AID 1259244); further: nearly all actives have a fitted effect of over 50% in size
# In short: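 After 5 days in hormone-depleted medium (charcoal-stripped serum, no phenol red), VM7Luc4E2 cells were seeded, incubated 24 h, then co-treated with compound and 0.1 nM (final) estradiol for 22 h before luminescence detection.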
# [9] = qHTS assay to identify small molecule antagonists of the sonic hedgehog signaling (Shh) pathway - cell viability counter screen (AID 1259367); further: nearly all actives have a fitted effect of over 55% in size
# In short: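 After a 4 hr settling period, 3T3 Gli1-Luc cells were treated with DMSO-dissolved chemicals and conditioned medium, kept 24 hr at 37C in 5% CO2, and assayed for viability by CellTiter-Fluor fluorescence following 1 hr reagent incubation.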
# [10] = target: Estrogen receptor beta (Homo sapiens) (UniProt Q92731); assay: qHTS assay to identify small molecule agonists of the estrogen receptor beta (ER-beta) signaling pathway (AID 1259377; active means well fitted activation curve with a large enough effect in the signal ratio in the repeat runs, not every such curve was filed as active; inconclusive means weak or mixed curves, or effect the other way; the % refers to the signal ratio); settings: ER-beta-UAS-bla HEK293T, beta-lactamase FRET ratio, 16 h; series mostly up to 92.4 µM
# In short: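 Beta-lactamase reporter readout: fluorescence of LiveBLAzer B/G FRET substrate after 2 h at room temperature, following 16 h compound treatment of ER-beta-UAS-bla HEK293T cells at 37C in 2% charcoal-stripped FBS medium.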
# [11] = A CellTox Green Cytotoxicity Assay to monitor cytotoxicity in HEK293 cells - 16 hour (AID 1224888); further: nearly all actives have a fitted effect of over 35% in size
# In short: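 Cytotoxicity was tracked continuously in HEK293 cells by a DNA-binding dye excluded from viable cells. Compounds were transferred in DMSO 5 h after seeding; fluorescence was recorded at intervals up to 40 h.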
# [12] = qHTS assay to identify small molecule agonists of the sonic hedgehog signaling (Shh) pathway - cell viability counter screen (AID 1259366); further: nearly all actives have a fitted effect of over 50% in size
# In short: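 CellTiter-Fluor fluorescence read-out, 1 hr at 37C, added after 23hr compound exposure. Cells: 3T3 Gli1-Luc, an NIH/3T3 clone with stably integrated Gli1-Luc reporter, plated 4hr before compound.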
# [13] = qHTS assay to identify small molecule phospholipidosis (PLD) inducers (AID 1259344; active means well fitted curve in the direction sought with a large enough effect; inconclusive means small, poorly fitted or top-dose-only effect, or another doubt; inactive means no such curve, though single readings can be large; an effect the other way counts as inactive or inconclusive)
# In short: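 HepG2 cells grown on collagen I take up LipidTOX Red while exposed to compound for 24 h; after fixation they are imaged at 20x and pit metrics are extracted.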
# [14] = qHTS assay to identify small molecule HDAC inhibitors (AID 1259364); further: nearly all actives have a fitted effect of over 45% in size
# In short: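 Homogeneous cell-based luminescent assay of endogenous class I/II HDAC activity; HCT-116 cells, 2 h compound exposure, 30 min HDAC-Glo development at RT.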
# Potency means the concentration at half of the fitted maximal effect; tags describe the fitted curve by direction and shape or compound fluorescence and quenching.
# UniProt Q92731, sequence (Q92731 whole entry, looked up): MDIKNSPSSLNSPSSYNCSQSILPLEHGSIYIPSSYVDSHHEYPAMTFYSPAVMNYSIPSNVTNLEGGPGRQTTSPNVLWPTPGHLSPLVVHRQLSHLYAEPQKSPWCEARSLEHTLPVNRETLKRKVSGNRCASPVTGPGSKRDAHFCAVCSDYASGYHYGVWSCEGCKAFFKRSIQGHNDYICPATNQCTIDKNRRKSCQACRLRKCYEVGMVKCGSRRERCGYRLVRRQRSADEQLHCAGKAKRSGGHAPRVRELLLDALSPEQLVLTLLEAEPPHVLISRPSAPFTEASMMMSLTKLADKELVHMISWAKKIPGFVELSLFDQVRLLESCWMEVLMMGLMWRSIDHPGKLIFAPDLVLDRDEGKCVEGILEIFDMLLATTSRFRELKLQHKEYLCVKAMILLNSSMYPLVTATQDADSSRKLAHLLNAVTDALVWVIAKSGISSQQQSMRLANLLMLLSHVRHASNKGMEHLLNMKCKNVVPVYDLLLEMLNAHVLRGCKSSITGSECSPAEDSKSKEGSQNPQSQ
# UniProt P03372, sequence (P03372 whole entry, looked up): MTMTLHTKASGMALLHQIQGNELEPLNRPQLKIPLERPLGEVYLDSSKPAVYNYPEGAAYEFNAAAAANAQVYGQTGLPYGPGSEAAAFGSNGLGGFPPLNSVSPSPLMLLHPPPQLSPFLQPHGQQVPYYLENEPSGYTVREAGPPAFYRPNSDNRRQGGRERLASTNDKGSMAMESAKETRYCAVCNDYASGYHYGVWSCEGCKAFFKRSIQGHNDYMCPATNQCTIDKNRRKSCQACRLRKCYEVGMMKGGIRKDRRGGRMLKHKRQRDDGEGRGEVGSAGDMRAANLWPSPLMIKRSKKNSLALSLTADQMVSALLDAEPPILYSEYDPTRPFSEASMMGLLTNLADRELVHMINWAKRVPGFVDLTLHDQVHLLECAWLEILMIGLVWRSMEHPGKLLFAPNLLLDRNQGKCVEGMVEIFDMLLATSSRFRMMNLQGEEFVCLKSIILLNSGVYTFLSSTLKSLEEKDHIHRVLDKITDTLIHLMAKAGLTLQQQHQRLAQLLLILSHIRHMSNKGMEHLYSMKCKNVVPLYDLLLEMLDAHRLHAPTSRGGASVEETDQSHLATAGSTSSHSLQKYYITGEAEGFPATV
smiles,measurement,setting,value
COc1ccc(-n2nc(C(F)F)cc2-c2ccc(S(C)=O)cc2)cc1 (stereo unspecified),Potency,[1],"inconclusive: 61.7 µM [activator, single point]"
same,Potency,[2],inactive
same,Potency,[3],active: 1.09 µM
NC(=O)N1C(=O)C(C(=O)c2cc(Cl)cs2)c2cc(F)c(Cl)cc21 (stereo unspecified),Potency,[1],"inconclusive: 49 µM [activator, single point]"
same,Potency,[4],"inconclusive: 54.9 µM [cytotoxic, single point]"
same,Potency,[5],inactive
same,Potency,[6],"inconclusive: 9.69 µM [cytotoxic, full curve]"
same,Potency,[7],"inconclusive: 15.4 µM [cytotoxic, partial curve]"
same,Potency,[8],"inconclusive: 48.6 µM [inhibitor, partial curve]"
same,Potency,[9],active: 27.3 µM
same,Potency,[10],"inconclusive: 27.3 µM [inhibitor, partial curve, poor fit]"
CC(C)CC(C)CC(O)CC(C)C (stereo unspecified),Potency,[1],"inconclusive: 24.5 µM [activator, single point]"
same,Potency,[5],"inconclusive: 61.7 µM [activator, single point]"
Sc1nc2ccccc2s1,Potency,[1],"inconclusive: 12.3 µM [activator, single point]"
same,Potency,[11],"inconclusive: 21.9 µM [activator, single point]"
same,Potency,[9],"inconclusive: 61.1 µM [cytotoxic, single point]"
COC(C)CCO (stereo unspecified),Potency,[1],inactive
same,Potency,[5],inactive
c1ccc(CCc2ccccc2)cc1,Potency,[1],"inconclusive: 54.9 µM [activator, single point]"
same,Potency,[2],inactive
same,Potency,[5],"inconclusive: 49 µM [activator, single point]"
same,Potency,[10],inactive
Fc1ccccc1[C@@H](F)COC1CCC(Nc2ncnc3[nH]ncc23)CC1 (stereo partly specified),Potency,[1],inactive
same,Potency,[2],"inconclusive: 19.5 µM [cytotoxic, partial curve]"
same,Potency,[4],"inconclusive: 38.9 µM [cytotoxic, partial curve]"
same,Potency,[7],"inconclusive: 54.5 µM [cytotoxic, partial curve, poor fit]"
same,Potency,[9],"inconclusive: 68.6 µM [cytotoxic, single point]"
same,Potency,[10],"inconclusive: 5.45 µM [rising, full curve]"
NCCCN1CCN(CCCN)CC1,Potency,[1],"inconclusive: 0.436 µM [activator, full curve, poor fit]"
same,Potency,[11],inactive
same,Potency,[12],"inconclusive: 68.6 µM [cytotoxic, single point]"
O=C(O)C(=O)Cc1c[nH]c2ccccc12,Potency,[1],inactive
same,Potency,[4],"inconclusive: 49 µM [cytotoxic, partial curve, poor fit]"
same,Potency,[8],"inconclusive: 4.33 µM [inhibitor, full curve]"
Cc1c(N)c(=O)n(-c2ccccc2)n1C,Potency,[1],"inconclusive: 10.7 µM [activator, single point]"
same,Potency,[11],inactive
CC1(C)CC(N)CC(C)(CN)C1 (stereo unspecified),Potency,[1],"inconclusive: 21.9 µM [activator, single point]"
same,Potency,[4],"inconclusive: 49.7 µM [rising, partial curve, poor fit]"
same,Potency,[12],"inconclusive: 27.7 µM [cytotoxic, partial curve]"
OC1CCC(C2CCCCC2)CC1 (stereo unspecified),Potency,[1],"inconclusive: 43.6 µM [activator, partial curve, poor fit]"
same,Potency,[11],inactive
same,Potency,[12],inactive
same,Potency,[10],inactive
CC(C)(Cc1c[nH]c2ccccc12)NCC(O)COc1ccccc1C#N (stereo unspecified),Potency,[1],"inconclusive: 26.8 µM [activator, single point]"
same,Potency,[2],active: 7.56 µM
same,Potency,[13],"inconclusive: 12.6 µM [activator, single point]"
same,Potency,[12],"inconclusive: 23.7 µM [cytotoxic, partial curve]"
same,Potency,[3],"inconclusive: 5.31 µM [inhibitor, full curve, poor fit]"
NC(=O)c1cnccn1,Potency,[1],"inconclusive: 40.3 µM [activator, partial curve, poor fit]"
same,Potency,[5],"inconclusive: 56.9 µM [activator, single point]"
COc1ccc(/C=C/C(=O)c2ccc(OC)cc2OC)cc1,Potency,[1],"inconclusive: 26.8 µM [activator, single point]"
same,Potency,[2],"inconclusive: 26.8 µM [cytotoxic, partial curve, poor fit]"
same,Potency,[14],"inconclusive: 26.6 µM [inhibitor, partial curve]"
same,Potency,[3],"inconclusive: 33.5 µM [inhibitor, single point]"
same,Potency,[10],"inconclusive: 9.44 µM [rising, full curve]"
CCOc1ccccc1O[C@H](c1ccccc1)[C@H]1CNCCO1,Potency,[1],"inconclusive: 26.8 µM [activator, partial curve]"
same,Potency,[4],"inconclusive: 26.8 µM [rising, partial curve, poor fit]"
same,Potency,[12],"inconclusive: 16.8 µM [cytotoxic, partial curve]"
same,Potency,[9],"inconclusive: 21.1 µM [cytotoxic, partial curve, poor fit]"
same,Potency,[3],inactive
same,Potency,[10],"inconclusive: 33.5 µM [falling, partial curve, poor fit]"

# Reference: PubChem BioAssay (Tox21)
